# Measured values from PubChem BioAssay AID686979 (National Center for Advancing Translational Sciences (NCATS), 2013).
# Screen size: about 420,000 compounds; about 50,000 (12%) were called active. The inconclusive results got no clear call from the source; some entries with a clear call stand among them for comparison. Calls follow the shape of the dose curve; as a rule, active = well fitted inhibition curve with a large enough effect; inconclusive = small, poorly fitted or top-dose-only effect; inactive = flat fitted curve, though single readings scatter. Potencies of inconclusive entries are left out as doubtful fits.
# Assay: qHTS for Inhibitors of human tyrosyl-DNA phosphodiesterase 1 (TDP1): qHTS in cells in presence of CPT; also: nearly all actives have a fitted effect of over 55% in size
# Settings: chicken DT40 Tdp1-/-;hTDP1 cells + 20 nM CPT, ATP luminescence, 48 h; activity change, negative = growth inhibition: at 46.2 µM (top of the series) unless noted
# Method in brief: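 Cell growth measured by CellTiter-Glo luminescence after a minimum 48 h, 37 C compound exposure with 20 nM CPT in Tdp1-knockout DT40 cells stably expressing hTDP1, seeded 400/well; qHTS titration format.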
# % is scaled to controls: 0 for no effect and ±100 for the full control effect; potency is read from the fitted curve at half-maximal effect; tags tell the direction and shape of the fitted curve.
Compound,Potency,"activity change, negative = growth inhibition"
CCOc1ccc(NC(=O)N(C2CCCCC2)C2CCN(C(C)=O)CC2)cc1,inactive,–
CCc1cc(/C(Cc2ccccn2)=N\Nc2ccccc2)c(O)cc1O,"inconclusive [inhibitor, single point]",–
CCCCN1CC[C@H]2C=CC[C@@H](C(=O)NCc3ccc(OC)cc3)[C@H]2C1=O,"inconclusive [inhibitor, single point]",–
COc1cccc(CNC(=O)C2CCN(S(=O)(=O)c3c(C)noc3/C=C/c3cccs3)CC2)c1,"inconclusive [inhibitor, partial curve]",–
CC(C)c1ccc(N(CCc2ccccn2)C(=O)C(C)(C)C)cc1,active: 16.4 µM,–
CC(Sc1nc(-c2ccccc2)c(-c2ccccc2)[nH]1)C(=O)NCC1CCCO1 (stereo unspecified),"inconclusive [inhibitor, single point]",–
Cc1ccc(-c2nnn(CC(=O)N(c3cccc(F)c3)C(C(=O)NC(C)(C)C)c3ccco3)n2)o1 (stereo unspecified),inactive,–
O=C(NCCc1csc(-c2cccc(F)c2)n1)C(=O)Nc1cc(F)ccc1F,inactive,–
N#CC1C(=O)c2ccccc2C1c1ccccc1 (stereo unspecified),"inconclusive [inhibitor, single point]",–
O=[N+]([O-])c1ccccc1C=CC=NN=Cc1ccccc1O,–,inconclusive: -35.2% [inhibitor]
COc1ccc(C)cc1NS(=O)(=O)c1cnc(N)nc1,inactive,–
CC(CN1C(C)CCCC1C)OC(=O)c1cccc(Br)c1 (stereo unspecified),inactive,–
CCCCNC(=O)CN1CCC2(O)CCCCC2C1c1ccccc1OC (stereo unspecified),"inconclusive [inhibitor, single point]",–
O=C1c2ccccc2C(c2nnnn2Cc2ccccc2)N1Cc1cccc(F)c1 (stereo unspecified),"inconclusive [inhibitor, single point]",–
Cc1onc(-c2ccccc2)c1C(=O)Nc1cc(C(F)(F)F)ccc1N1CCOCC1,active: 3.66 µM,–
CCc1ccccc1NC(=O)Cn1nnc2sc3c(c2c1=O)CCC(C(C)(C)C)C3 (stereo unspecified),active: 16.4 µM,–
Cc1nc(C)c(C(=O)N/N=C/c2ccco2)s1,inactive,–
O=C(c1cc2ccc3cccnc3c2[nH]1)N1CCCCC1,"inconclusive [inhibitor, single point]",–
O=C(CN(C(=O)CCC(=O)Nc1nccs1)c1ccc(F)cc1)NCc1ccc2c(c1)OCO2,inactive,–
COC(=O)CSc1nc(C)c(Oc2ccccc2)c(=O)[nH]1,inactive,–
O=C(Nc1ccccc1C(=O)O)c1ccc(NC(=O)c2ccc(Br)o2)cc1,"inconclusive [inhibitor, single point]",–
COc1ccc(OC)c(C(=O)CSc2nnc(C3CC3)n2C2CC2)c1,"inconclusive [inhibitor, single point]",–
CCOC(=O)c1oc2nc(CC(C)C)c3c(c2c1N)CCCC3,active: 23.1 µM,–
CCOc1ccccc1NC(=O)CN1CCC(C(=O)c2ccc(F)cc2)CC1,active: 20.6 µM,–

Compound,Potency,"activity change, negative = growth inhibition"
O=C(c1cc(COc2cccc(C(F)(F)F)c2)on1)N1CCC(c2ccccc2)CC1,inactive,–
Cc1cc(=O)oc2cc(OCC(=O)OCC(=O)NCCc3ccccc3)ccc12,inactive,–
Cc1cccc(C(C)C)c1NC(=O)COC(=O)C1CC(=O)N(Cc2ccccc2)C1 (stereo unspecified),inactive,–
Cc1ccc2nc(SCC(=O)Nc3ccc(C)c([N+](=O)[O-])c3)[nH]c2c1,"inconclusive [inhibitor, single point]",–
Cc1ccc(S(=O)(=O)Nc2ccc3c(c2)C(=O)N([C@H](C)CO)C[C@H](C)[C@@H](CN(C)Cc2ccc(-c4ccccc4)cc2)O3)cc1,"inconclusive [inhibitor, single point]",–
N#CC1=C(N)Oc2n[nH]c(-c3ccc(F)cc3)c2C1c1cccnc1 (stereo unspecified),"inconclusive [inhibitor, single point]",–
O=S(=O)(c1cccs1)N1CN(Cc2cccs2)c2nc3ccccc3nc21,"inconclusive [inhibitor, single point]",–
CCn1cc(C(=O)O)c(=O)c2cc(OC)ccc21,"inconclusive [inhibitor, single point]",–
CN(CC(=O)Nc1c(Cl)cccc1Cl)C(=O)CCCN1C(=O)c2ccccc2C1=O,inactive,–
O=C(CN(CC1CCCO1)C(=O)Cn1nnc(-c2ccc(F)cc2)n1)NC1CCCCC1 (stereo unspecified),"inconclusive [inhibitor, full curve, poor fit]",–
COC(=O)c1ccc(N=Cc2c(C(F)(F)F)[nH]n(C)c2=O)cc1,inactive,–
CC(=O)Nc1cccc(NC(=O)CSc2nccn2Cc2ccc3c(c2)OCO3)c1,inactive,–
O=C(COc1cc(F)ccc1[N+](=O)[O-])Nc1cc(S(=O)(=O)N2CCCC2)ccc1Cl,"inconclusive [inhibitor, single point]",–
Cc1cccc(NC(=O)CSc2ccc(-c3sc(-c4ccccc4)nc3C)nn2)c1C,"inconclusive [inhibitor, single point]",–
COc1ccc(C(O)c2nccn2Cc2ccccc2)cc1 (stereo unspecified),inactive,–
CC(=O)Nc1ccc(-c2cc(-c3ccccc3)nc(-c3ccccc3)n2)cc1,"inconclusive [inhibitor, single point]",–
O=C(NCCN1CCCCC1)c1cc(Cl)ccc1Cl,inactive,–
O=C(Cc1nc2ccccc2[nH]1)c1ccc(Br)cc1,"inconclusive [inhibitor, single point]",–
Cc1ccc(N2CCN(C(=O)C(=O)c3cccc(Br)c3)CC2)cc1,"inconclusive [inhibitor, single point]",–
CC(=O)c1ccc(N2CCN(C(=O)c3cc(S(=O)(=O)N4CCCCCC4)cn3C)CC2)cc1,"inconclusive [inhibitor, partial curve]",–
COc1cccc(C(=O)N(C)C(C)c2nc3ccccc3s2)c1 (stereo unspecified),"inconclusive [inhibitor, single point]",–
O=C(Nc1cccc2ccccc12)c1ccc2sc([C@@H]3O[C@H](CO)[C@@H](O)[C@H]3O)nc2c1,–,inconclusive: -31.2% [inhibitor]
COc1ccc(CCNC(=O)C2CCC(=O)N(CC3CCCCC3)C2)cc1 (stereo unspecified),"inconclusive [inhibitor, single point]",–
CCn1nc(CC(C)C)cc1C(=O)N1CCCC(Nc2ccc(OC)cc2)C1 (stereo unspecified),"inconclusive [inhibitor, single point]",–

Compound,Potency,"activity change, negative = growth inhibition"
Cc1ccc(NC(=O)[C@@H](NC(=O)c2cccc(S(=O)(=O)N3CCOCC3)c2)C(C)C)cc1C,"inconclusive [inhibitor, single point]",–
CC(=O)Nc1ccc(S(=O)(=O)Oc2ccc(N3C(=O)C4CCCCC4C3=O)cc2)cc1 (stereo unspecified),active: 16.4 µM,–
CCOc1ccc(-c2nc(CSCC(=O)N3CCN(C(=O)c4ccco4)CC3)c(C)o2)cc1,"inconclusive [inhibitor, single point]",–
CC(C)CCN(C(=O)Nc1ccc(Cl)c(Cl)c1)C1CCN(C(C)C)CC1,active: 14.6 µM,–
O=C(OCc1cc(=O)n2nc(-c3cccs3)sc2n1)c1cccc(F)c1,inactive,–
COCCCNC(=O)c1ccc(Cn2c(SCc3ccc(F)cc3)nc3cccnc32)cc1,"inconclusive [inhibitor, partial curve]",–
CCOC(=O)C1=C(COc2ccc(F)cc2Cl)NC(=O)NC1c1cc(C)ccc1C (stereo unspecified),"inconclusive [inhibitor, single point]",–
COc1ccccc1Nc1nc(-c2ccccc2)nc2ccccc12,"inconclusive [inhibitor, single point]",–
O=C1c2ccccc2C(=O)N1CCCn1c(=O)oc2ccccc21,inactive,–
CCN1C(=O)[C@H]2[C@@H](c3ccc(C)cc3)N3C(=O)N(c4cccc(F)c4)C(=O)[C@@]3(C)[C@H]2C1=O,inactive,–
CN(C)S(=O)(=O)c1ccc(C(=O)OCC(=O)N2CC3(C)CC2CC(C)(C)C3)cc1 (stereo unspecified),"inconclusive [inhibitor, single point]",–
CCN(CC)C(=O)CSc1nc2cc3c(cc2c(=O)n1Cc1ccco1)OCO3,"inconclusive [inhibitor, partial curve, poor fit]",–
CC(=O)c1c(C)oc2ccc(NS(=O)(=O)c3ccc(C)cc3)cc12,"inconclusive [inhibitor, partial curve, poor fit]",–
c1ccc(COc2ncnc3c2ncn3CCCNC2CCN(Cc3ccccc3)CC2)cc1,active: 7.31 µM,–
CCCCn1nnnc1NCc1ccc(N2CCCC2)cc1,–,inconclusive: -34.4% [inhibitor]
CCN(c1ccccc1)S(=O)(=O)c1cc(NC(=O)C2CC2)ccc1Cl,inactive,–
C=CCn1c(SCC(=O)Nc2ccccc2OC)nnc1-c1ccccn1,"inconclusive [inhibitor, partial curve]",–
N=c1c(C(=O)NC2CCCC2)cc2c(=O)n3ccccc3nc2n1CCN1CCOCC1,inactive,–
Cc1c([C@H]2[C@@H](CC#N)C2(C)C)c2ccccc2n1C,inactive,–
Cc1cc2c(=O)n(C)c(SCC(=O)Nc3cccc(O)c3)nc2s1,–,inconclusive: -31.6% [inhibitor]
COc1cc(NC(=O)Nc2ccccc2OC)c(OC)cc1NC(=O)CN1CCCCC1,"inconclusive [inhibitor, partial curve]",–
COC(=O)CCCC1=CC2=CC(=O)C(C)(OC(=O)c3cccs3)C(=O)C2=CN1c1ccccc1 (stereo unspecified),inactive,–
Cc1ccc(S(=O)(=O)c2nnn3c2nc(NC2CCCCCC2)c2sccc23)cc1C,active: 14.6 µM,–
